# Read counts are not given, so values of variants with three or more changes are uncertain.
# B1: LINE1-full (parent)
# chain: UACGUAGGUGGUUUUCCCCUGAUAGUGCUAAGGGGGCCUGGAAGUUUGGACUGGGCAGAGCUCAACACAGCGUGGCAAAGUGGCUGUGGCUAGACUGCCUCUCUGGAUUCCUCGUCACUCAGCAGGGCAUCUCUGAGAGAAAUGCC
# Variants of: B1
# Experiment: self-cleavage, relative activity (ratio to wild type); higher = more cleavage; in vitro, sequencing; the parent is a self-cleaving ribozyme
row,Variant,self-cleavage
1,U15C U20C A77G U143C,2.05
2,U15C A67G A77G,1.23
3,U15C U62C U73A U100A,0.05
4,C19U A30U A43G,0.38
5,U15C U20A U132G A141U,0.71
6,U15C A57G G125U,0.95
7,U15A U26C C118U G126A,2.17
8,U15C G34U A50G,0.77
9,U15C A42G U102C,1.02
10,C19A A69G G135A,0.44
11,C19U G34A U96C,0.14
12,C19U A30U U100C,1.84
13,C19A U20C A107G,1.23
14,U15A U47A A59G A65G A107G,0
15,U15C U52A U96A U100A,0.11
16,U15C U20A A65G,0.11
17,C16U A42G U100C A136U,1.02
18,U15G U73A G75U A107G,0.19
19,U15A U85C U87C,0
20,U15C A42G A140G A142G,1.58
21,C17U A64U U73A U87A A140G,0.02
22,U15C A77G C113U A121U,2.23
23,C17U A31G A43G A50G,0.92
24,C18U A65G C71U,0.21

row,Variant,self-cleavage
1,U15C G72A A79G G83U G122U,1.56
2,U15C A65G A121G,0.31
3,C18A A65G A140U U143C,0.1
4,C17U U20C G33U G53A U132C U143A,0.87
5,U15A U115C A136G,1.77
6,C17U U62A A94G U112C,0.13
7,U15C A64U A138G,1.09
8,U15G C51A A59G,0.3
9,C19A U104A A107G,0.73
10,U15C U26C A50G,0.73
11,U15A U62C U102C,0.18
12,C18A C133U A140G,0.93
13,U15A U130C A138G,1.04
14,U15C G82A U102C,2.02
15,U15G U62A G106U U108C,0.1
16,U15C G54A A67G U91C,0.2
17,U15C U20A U130G,1.73
18,U15C U96C A136G,0.14
19,C18U U26A U52C A69G A129G A141G,0
20,U15A U47C G49U U73C U81A A141U A142G,1.36
21,C19U A57G U104A,0.26
22,C19U G33U A67G,0.29
23,U15C U52A A64G U85C,0
24,U15C U96A G114U C120G,0.06

row,Variant,self-cleavage
1,U15C U20A A43U,1.46
2,C18A U132C A140C,2.04
3,C19A U23C U39G,1.86
4,U15C U73A U100A U104C U109C,2.45
5,U15C G106A A107G,1.9
6,U15C U85C U134A,0
7,U15C C71U A79G U81C A94C,0
8,U15C A57G A67U U104A,0
9,U15C A121G A141G,2.02
10,U15C A30G U46A U108C,1.61
11,U15C U20C U26A U132C,0.27
12,C18U U23C A79C U112C U132C,2.12
13,C19U A59U U91C,0.28
14,U15A U96C G122C,0.08
15,U15C U62G U115C,2.04
16,C19U C38A A77U U87C U134C,0.12
17,U15C U115C G122U,1.37
18,C18A C38U A107G,1.32
19,U15A U73C U134C,0.73
20,C18A U104A C110U A142G,1.64
21,C18U U62C U87C,0
22,U15C A64G A69G G135A,0.5
23,U15A U73C U91A U109C,1.84
24,C17U A77U A140G,0.93

row,Variant,self-cleavage
1,C19U A22G A24U A79C,1.37
2,U15C A42U A67G G75U A141G,0.34
3,C17A A43U U108C A140G,1.11
4,C17U U20C U26A A69U A140G,0.08
5,U15C A31G U102C,0
6,U15C A79G A142G,1.15
7,U15C C61U A107G,0.09
8,U15C A57G U115C,0
9,U15C A64G A124G A129G,0.27
10,C17U U46C A124C,1.91
11,U15C A77U G106A C110U,1.35
12,C17G A65C A79G,0.31
13,C17A G74A U130A,1.22
14,C17U U20C A117G,1.31
15,U15C G35A U81A U100C,1.67
16,U15C U29C A31G U39C A140U,2.04
17,U15C A65U U143A,0.32
18,U15C A24G A43G U102A,2.14
19,C19A U96C A129U,0.07
20,U15A U112C A136G,1.29
21,U15C U20C U46C A67C,0
22,U15A U29A U45A A140G,0.78
23,C16U A59U G127U,0.91
24,U15C G127A U143C,1.55

row,Variant,self-cleavage
1,C19U G34C A138G,1.35
2,U15C A31U A59G A65G A141G,0.51
3,U15C A42G A59U A79G G82A A121G,0.35
4,U15A U45C U52A U115C,1.97
5,U15C A24G A64G U81C U85A,0.84
6,C18U U73A U109C A117G,0
7,U15A U73A C131A,1.24
8,U15C C16U U87A,0.07
9,U15C A140G U143C,1.78
10,U15C C37A U62C U119C A141G,0.07
11,C17A U108C C113U,1.06
12,U15C A50G G72A A141G,0.78
13,C18A A57G U119A,0.54
14,U15C U62C C71U,0
15,U15C A69U A94G,0.1
16,C19U A50G U100A,0.28
17,U15G U26A G48A,0.77
18,C18U C113U A121G,0.81
19,U15A U85C C133U A142G U143A,0.63
20,C19A C37U U39C U52C U62C U102A,0
21,C19U G32C U39C U96C A141G,0
22,U15C U26A A124U,0.79
23,C19G U20C A69U,0.19
24,C18U G25A A42G A65G U119C,0.12

row,Variant,self-cleavage
1,U15C A59U U102A G144A,0.34
2,C17A A30G U46A,0.55
3,C17U A65G A79U A141G,0.04
4,C19A A31U U115A,0.93
5,U15C A30G U130C,1.07
6,U15C C19U A92G A117U C146U,0.23
7,C17U G74A A107G A117G,1.3
8,U15C C84A U104C,0.13
9,U15C C37U C51U U96A,0.07
10,U15A U47C U134A,0.49
11,C19U C37U U47C C56U U108C U130C,0.3
12,U15C U100C A124G,1.74
13,U15C U87A A124G,0.06
14,U15C U45G U73C,0
15,C19U A22U A69U U112A,0.13
16,U15C U26A U45C U46A U62C U73A C99U A140G,0.11
17,U15G U73C G75A U143G,0.92
18,U15C C18A U100A A142G,0.59
19,C16U A31G G33A U45C A94U C95U U100C A121G,0.11
20,U15C U52C U102G,1.15
21,U15A U134C A136U A142G,0.94
22,U15C C131U U132C,0.94
23,U15C U47G A129G,1.75
24,C19U A69U A142G,0.05

row,Variant,self-cleavage
1,U15C U39C A79G U109A,1.21
2,U15C U108A A141G A142G,2.63
3,U15C U73C A121G,2.3
4,U15C C19U A124G,0.51
5,U15C A22G G53A U108C,2.14
6,U15A U26C C133U,1.24
7,U15A U109C C113A,1.25
8,U15C U45C G126A,1.08
9,U15C A57U U73A U119C C128U,0.1
10,U15C A31G C51A A136G,1.46
11,U15C A42G U45A A57U U96A,0.6
12,U15C C71G A77G,0.68
13,U15C U73A A79G,1.3
14,U15C A42G A121U A138G,1.78
15,U15C C17A A43G,0.93
16,U15C U20C U132A,1.75
17,C19U A57U A67G U96A A117G U143A,0
18,C17A U20A A65G A141G,0.06
19,C19U A69G C90U U109C U115A U119C,0
20,C18A U85A G89A,0.11
21,C17U G49A U81A U132C,1.25
22,U15A U108C C133U,1.01
23,C17G A78G U132C,1.48
